# Experimental data: PubChem BioAssay AID1768 (National Center for Advancing Translational Sciences (NCATS), 2009)
# Among all 270,000 compounds or so, about 620 (0.23%) were called active. Inconclusive means that the source gave no clear call. Such entries were picked first, then a sample of the others. Calls follow the shape of the dose curve; as a rule, active = well fitted inhibition curve with a large enough effect in the polarisation, with a control signal flat (not every such curve was filed as active); inconclusive = small, poorly fitted or top-dose-only effect, or effect the other way, or a change in a side signal; inactive = no such curve, though single readings can be large or run the other way; the % refers to the polarisation. Where the call is inconclusive, the potency comes from a doubtful curve fit. “Side channel” marks fits to a control or component signal instead of the main read-out.
# Target: Menin (Homo sapiens) (UniProt O00255)
# Assay: qHTS Assay for Inhibitors Targeting the Menin-MLL Interaction in MLL Related Leukemias: Competition With Texas Red Labeled MLL-derived Mutant Peptide; as to FP activity change, negative = inhibition: % of control where 0% means no effect
# Settings: fluorescence polarization; FP activity change, negative = inhibition: at 61.6 µM (top of the series)
# Potency is read from the fitted curve at half-maximal effect; tags tell the direction and shape of the fitted curve or compound fluorescence and quenching.
# UniProt O00255, sequence (O00255 whole entry, looked up): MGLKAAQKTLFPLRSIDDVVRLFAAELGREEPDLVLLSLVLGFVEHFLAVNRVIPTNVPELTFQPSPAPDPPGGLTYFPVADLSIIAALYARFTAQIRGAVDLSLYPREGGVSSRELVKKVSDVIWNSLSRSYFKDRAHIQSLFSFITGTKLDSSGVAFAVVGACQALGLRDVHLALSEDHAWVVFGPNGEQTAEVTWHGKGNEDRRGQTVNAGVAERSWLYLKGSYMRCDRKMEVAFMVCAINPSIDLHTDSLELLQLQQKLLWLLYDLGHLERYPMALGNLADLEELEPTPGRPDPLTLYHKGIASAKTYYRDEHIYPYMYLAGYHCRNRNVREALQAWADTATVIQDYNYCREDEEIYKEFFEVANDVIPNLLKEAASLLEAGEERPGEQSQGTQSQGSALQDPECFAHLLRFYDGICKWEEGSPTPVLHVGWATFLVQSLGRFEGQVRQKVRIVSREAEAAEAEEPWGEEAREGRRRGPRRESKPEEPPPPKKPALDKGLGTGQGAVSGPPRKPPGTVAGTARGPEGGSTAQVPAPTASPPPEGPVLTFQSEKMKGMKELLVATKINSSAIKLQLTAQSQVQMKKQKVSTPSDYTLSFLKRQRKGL
SMILES,Potency,"FP activity change, negative = inhibition"
O=c1c2ccccc2nc2c3ccccc3c(NCCN3CCOCC3)nn12,"inconclusive: 11.2 µM [inhibitor, partial curve]",–
COc1ccc(-c2csc(NC(=O)COc3ccc(N(C)S(=O)(=O)c4ccc(C)cc4)cc3)n2)cc1,"inconclusive: 11.2 µM [inhibitor, partial curve]",–
COc1ccc(NC(=O)CCS(=O)(=O)c2ccc(OC)cc2)cc1,"inconclusive: 1.41 µM [inhibitor, partial curve, poor fit]",–
CC(NCC1(N2CCOCC2)CCCCC1)C(=O)N1CCc2ccccc21 (centres undefined),"inconclusive: 5.01 µM [inhibitor, full curve, poor fit]",–
CCOc1ccc(NC(=O)CSc2nc(NS(=O)(=O)c3ccc(C)cc3)cc(=O)[nH]2)cc1,"inconclusive: 11.2 µM [quencher, side channel, single point]",–
Cc1cc2c(=O)n(C)c(SCC(=O)Nc3ccccc3)nc2s1,"inconclusive: 39.8 µM [inhibitor, single point]",–
COc1ccc(-c2nn(C)c(=O)c3ccccc23)cc1CNS(C)(=O)=O,–,inactive: -10.2%
COc1ccc(Oc2ncc3nc(-c4ccc(F)cc4)c(=O)n(C)c3n2)cc1,"inconclusive: 2.82 µM [inhibitor, full curve]",–
CCOC(=O)C1CCN(C(=O)/C(C)=C\c2ccccc2)CC1,"inconclusive: 25.1 µM [fluorescent, side channel, single point]",–
CN(C(=O)COC(=O)c1cc(NS(=O)(=O)c2cc([N+](=O)[O-])ccc2Cl)ccc1O)C1CCCCC1,"inconclusive: 14.1 µM [quencher, side channel, partial curve]",–
CC(Nc1cccc2ccccc12)C(=O)N/N=C/c1ccc([N+](=O)[O-])cc1 (centres undefined),"inconclusive: 20 µM [quencher, side channel, partial curve]",–
Cc1cccc(NC(=S)N/N=C/c2ccc(Cl)c([N+](=O)[O-])c2)c1,"inconclusive: 14.1 µM [quencher, side channel, partial curve]",–
COc1ccc(NC(=O)c2cnc(SC)nc2C)c(OC)c1,"inconclusive: 31.6 µM [inhibitor, partial curve]",–
COCCNC(=O)C1CCC(Cn2c(=S)[nH]c3ccccc3c2=O)CC1 (centres undefined),"inconclusive: 39.8 µM [inhibitor, single point]",–
Cc1ccc(C(=O)/C=C/c2cn(CN3CCN(C)CC3)c3ccccc23)cc1,"inconclusive: 25.1 µM [quencher, side channel, partial curve]",–
COc1cc(/C=C2\C(=N)N3N=C(S(C)(=O)=O)SC3=NC2=O)cc(OC)c1OCCOc1ccccc1C,"inconclusive: 5.01 µM [quencher, side channel, full curve]",–
CN(C)CCCNC(=O)c1ccc(Cl)c(S(=O)(=O)N(C)c2ccccc2)c1,"inconclusive: 22.4 µM [fluorescent, side channel, single point]",–
Cc1cc(OC(=O)c2c(C)cc(O)cc2O)cc(O)c1C(=O)O,"inconclusive: 56.2 µM [inhibitor, partial curve, poor fit]",–
COc1cc(NC(=O)c2cccs2)c(OC)cc1NC(=O)CCC(=O)Nc1ccc(C)cc1,"inconclusive: 39.8 µM [fluorescent, single point]",–
COC(=O)C1=C(CN2CCc3ccccc32)NC(=O)NC1c1cc(C)ccc1C (centres undefined),"inconclusive: 39.8 µM [fluorescent, side channel, partial curve]",–
O=C(CCN1CCc2ccccc21)c1ccc2c(c1)OCCO2,"inconclusive: 8.91 µM [inhibitor, full curve]",–
COc1cc2c(cc1O)CC[C@@H]1[C@@H]2CC[C@]2(C)[C@@H](O)CC[C@@H]12,"inconclusive: 2.51 µM [inhibitor, full curve]",–
CCCCc1nc2c(c3c1C[C@H](C)OC3)CN(C(=O)NCCc1c[nH]c3ccccc13)CC2,–,inactive: 4.66% [at 11.7 µM]
CC(C)(C)NC(=O)NC(=O)CN1CCC(Cc2ccccc2)CC1,"inconclusive: 10 µM [fluorescent, side channel, full curve]",–
Cc1ccc(C(=O)N(CC(=O)NC2CCCCC2)c2ccccc2F)s1,"inconclusive: 14.1 µM [fluorescent, side channel, partial curve]",–
CC(C)[C@H](NC(=O)[C@H](CCCCN)NC(=O)[C@@H](NC(=O)[C@@H]1CCCN1C(=O)[C@H](CCCN=C(N)N)NC(=O)[C@H](CCCN=C(N)N)NC(=O)[C@H](CCCCN)NC(=O)[C@H](CCCCN)NC(=O)CNC(=O)[C@@H](NC(=O)[C@@H]1CCCN1C(=O)[C@@H](N)CCCCN)C(C)C)C(C)C)C(=O)N[C@@H](Cc1ccc(O)cc1)C(=O)N1CCC[C@H]1C(=O)O,"inconclusive: 35.5 µM [inhibitor, single point]",–
O=[N+]([O-])c1ccc(N2CCN(C(=S)Nc3ccc(F)cc3)CC2)cc1,"inconclusive: 14.1 µM [quencher, side channel, partial curve]",–

SMILES,Potency,"FP activity change, negative = inhibition"
COc1cc(CNCc2cccc3ccccc23)cc(OC)c1,"inconclusive: 14.1 µM [fluorescent, side channel, partial curve]",–
O=C(c1ccc2nc(N3CCOCC3)sc2c1)N1CCC(Cc2ccccc2)CC1,"inconclusive: 8.91 µM [fluorescent, side channel, partial curve]",–
O=C(CCC1CCCNC1)c1ccccc1 (centres undefined),–,inactive: -20%
O=C(N/N=C/c1c(O)ccc2ccccc12)c1cccnc1,"inconclusive: 15.8 µM [quencher, side channel, partial curve]",–
CCN(CC(=O)NCc1ccc(Cl)cc1)C(=O)/C=C/c1ccc(C#N)cc1,"inconclusive: 25.1 µM [fluorescent, side channel, single point]",–
CCOC(=O)c1c(-c2ccc(OC)cc2)oc2ccc(O)cc12,"inconclusive: 28.2 µM [quencher, single point]",–
CC12C=C(/C=C/CCc3ccco3)C(C)(C1)[C@H](CCc1ccco1)CC2=O (some centres undefined),–,inactive: 1.1%
COc1ccccc1CN1C[C@@H]2C[C@@H](C3=Cc4cc(Cl)ccc4OC3)N3CCC[C@@]23C1=O,"inconclusive: 3.55 µM [fluorescent, side channel, full curve]",–
N=C1c2ccccc2CN1c1ccc(S(=O)(=O)N2CCCCC2)cc1,"inconclusive: 25.1 µM [inhibitor, partial curve]",–
O=c1cnc2cnc(N3CCNCC3)nc2n1Cc1ccc(F)cc1,–,inactive: 0.614%
Cc1ccc(Cn2nnnc2CN2CCC(O)(c3ccccc3F)CC2)cc1,"inconclusive: 39.8 µM [fluorescent, side channel, single point]",–
COc1ccc2cc(C(N)=O)/c(=N/NC(=O)c3ccco3)oc2c1,"inconclusive: 39.8 µM [inhibitor, single point]",–
COc1ccc(-c2c3c(nc4sc5c(=O)[nH]c(C)nc5c24)CCC3)cc1,–,inactive: -9.65%
CCOC(=O)c1cc(C)sc1NC(=S)Nc1ccccc1,"inconclusive: 8.91 µM [quencher, side channel, partial curve]",–
O=C(N/N=C/c1cc(Br)c(O)c(Br)c1O)c1ccc2c(c1)OCCO2,"inconclusive: 17.8 µM [quencher, side channel, partial curve]",–
CC(CNC(=O)CCc1nnc(CCC2CCCCC2)o1)c1ccccc1 (centres undefined),"inconclusive: 10 µM [fluorescent, side channel, partial curve]",–
c1ccc(-c2csc(-c3nc4ccccc4[nH]3)n2)cc1,"inconclusive: 14.1 µM [quencher, side channel, partial curve]",–
ClC(Cl)c1nnc(-c2ccccc2)c(-c2c[nH]c3ccccc23)n1,"inconclusive: 17.8 µM [quencher, side channel, single point]",–
O=[N+]([O-])c1cc(C(F)(F)F)cc([N+](=O)[O-])c1NCCCNc1ccc([N+](=O)[O-])c2cccnc12,"inconclusive: 8.91 µM [quencher, side channel, partial curve]",–
COc1cccc(C2CNC3(CCCC(C)C3)c3[nH]c4ccccc4c32)c1OC (centres undefined),"inconclusive: 2.82 µM [inhibitor, partial curve, poor fit]",–
COc1ccc(C2CC(c3ccccc3)=NN2C(=O)CN2CCN(Cc3ccccc3)CC2)cc1 (centres undefined),"inconclusive: 3.16 µM [fluorescent, side channel, full curve]",–
CCOc1ccc(-c2nnc(N3CCCCC3)c3ccccc23)cc1,"inconclusive: 0.631 µM [fluorescent, partial curve, poor fit]",–
COc1cc(-c2n[nH]c(=S)n2-c2ccc(C)cc2)cc(OC)c1OC,"inconclusive: 17.8 µM [quencher, side channel, partial curve]",–
CC(C)C(C)(C#N)NC(=O)CSc1nc2scc(-c3ccco3)c2c(=O)n1-c1ccccc1 (centres undefined),"inconclusive: 22.4 µM [quencher, side channel, single point]",–
C=CCOC(=O)N[C@@H](c1ccc(Br)cc1)C(C(C)=O)C(C)=O,–,inactive: 8.85%
COc1cc(OC)c(OC)cc1/C=C/c1cc(C(=O)O)c2ccccc2n1,"inconclusive: 22.4 µM [quencher, side channel, single point]",–
CCn1cc(CCCC(=O)NCc2ccccc2OC)c2ccccc21,"inconclusive: 11.2 µM [fluorescent, side channel, partial curve]",–
